# In publication PMC4336329 (PLoS ONE, 2015):
# About 14,000 (4.5%) of roughly 310,000 compounds showed an effect of 50% or more. The effect is printed as a negative number. Some of the results follow.
# Molecular target: human ether-à-go-go-related gene (hERG) potassium channel (human, UniProt Q12809)
# Assay: primary screen, population patch clamp on CHO cells stably expressing hERG
# 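Further: peak tail current of the secondary pulse compared with the same well before compound.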
# human ether-à-go-go-related gene (hERG) potassium channel, sequence (Q12809 whole entry, looked up): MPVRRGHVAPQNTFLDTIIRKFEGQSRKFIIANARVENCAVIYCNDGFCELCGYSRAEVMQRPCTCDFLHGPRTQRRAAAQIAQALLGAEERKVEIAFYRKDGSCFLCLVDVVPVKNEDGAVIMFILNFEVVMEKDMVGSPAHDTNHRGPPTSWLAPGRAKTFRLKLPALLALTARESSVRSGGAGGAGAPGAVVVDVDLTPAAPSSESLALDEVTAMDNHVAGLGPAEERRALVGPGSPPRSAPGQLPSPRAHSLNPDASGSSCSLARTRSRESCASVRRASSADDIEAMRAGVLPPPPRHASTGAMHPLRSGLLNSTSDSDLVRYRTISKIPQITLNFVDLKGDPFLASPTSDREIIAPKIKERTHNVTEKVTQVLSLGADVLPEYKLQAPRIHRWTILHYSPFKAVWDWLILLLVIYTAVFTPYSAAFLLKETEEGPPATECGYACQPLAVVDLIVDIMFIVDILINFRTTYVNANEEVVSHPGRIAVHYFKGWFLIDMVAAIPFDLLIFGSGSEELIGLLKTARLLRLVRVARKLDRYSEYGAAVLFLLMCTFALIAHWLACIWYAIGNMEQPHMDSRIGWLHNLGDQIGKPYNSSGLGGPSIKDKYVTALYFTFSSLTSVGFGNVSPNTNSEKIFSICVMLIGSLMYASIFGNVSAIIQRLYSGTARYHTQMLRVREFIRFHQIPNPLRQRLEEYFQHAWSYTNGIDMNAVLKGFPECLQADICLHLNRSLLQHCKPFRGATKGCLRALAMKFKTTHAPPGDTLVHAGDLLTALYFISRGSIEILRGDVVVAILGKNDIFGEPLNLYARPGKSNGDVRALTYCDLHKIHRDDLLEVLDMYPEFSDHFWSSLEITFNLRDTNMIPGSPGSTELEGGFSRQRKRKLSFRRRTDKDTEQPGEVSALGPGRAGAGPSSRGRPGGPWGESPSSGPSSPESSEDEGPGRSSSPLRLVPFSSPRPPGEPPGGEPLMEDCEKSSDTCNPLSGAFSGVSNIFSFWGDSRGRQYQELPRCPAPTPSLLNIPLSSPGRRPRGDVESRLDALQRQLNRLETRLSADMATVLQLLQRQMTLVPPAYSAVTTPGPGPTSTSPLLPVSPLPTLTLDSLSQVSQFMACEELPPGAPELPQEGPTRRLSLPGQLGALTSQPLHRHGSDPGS
row,SMILES,"hERG current change (%, negative = inhibition) at 10uM [%]"
1,Cc1cc(C)nc(SCC(=O)Nc2ccc3c(c2)OCO3)n1,5.56
2,CCOc1ccccc1C(=O)NCC(=O)OCCCOC(=O)CNC(=O)c1ccccc1OCC,-24.7
3,CCOC(=O)CSc1nc(-c2cccs2)nc2c1c(=O)n(C)c(=O)n2C,22.2
4,O=C(N/N=C/c1cc([N+](=O)[O-])ccc1O)C1CC1,9.47
5,C=CCn1c2ccccc2c2nnc(SCc3[nH]c(=O)[nH]c3C(=O)CCCCC(=O)OCC)nc21,4.39
6,CC1CCCCN1CCNC(=O)c1ccc2c(c1)N(Cc1ccccc1F)C(=O)c1ccccc1S2=O (stereo not drawn),-45.1
7,COc1ccccc1CN1CCN(C(CC(C)C)c2nnnn2Cc2cccs2)CC1.Cl (stereo not drawn),-57.9
8,O=C1c2ccsc2SCCN1Cc1ccc(F)cc1,12.3
9,CCOc1cc2c(cc1OCC)C(c1ccccc1OC)OC(=O)C2 (stereo not drawn),4.38
10,CC(C)NC(=O)COc1ccc(/C=N/NS(=O)(=O)c2ccccc2)cc1,9.36
11,CCOc1cc(N2CCOCC2)c(OCC)cc1NC(=O)COC(=O)c1ccc(Cl)cc1N,-22.8
12,Cc1cc2cc(CNC(=O)c3ccc(Br)o3)ccc2n1C,8.71
13,CON(C)c1nc(OCCNC(=O)OCc2ccc(Cl)cc2Cl)nc(N(C)C)n1,-24.1
14,CCCCNS(=O)(=O)c1ccc2nc(SCC(=O)Nc3ccccc3Cl)[nH]c2c1,2.49
15,O=C(Oc1cccc(C(=S)N2CCOCC2)c1)c1ccc([N+](=O)[O-])cc1,-31.3
16,Cc1ccc(-c2nc3nc4ccccc4nc3n2Cc2ccco2)cc1,-18.7
17,CCCc1oc2c(c(=O)c1CC)C(=O)CC(C)(C)C2,8.08
18,CCCC[C@@H]1CNC(=S)N1CCCc1cc(OC)c(OC)c(OC)c1,9.02
19,COc1ccc(CNC(=O)c2ccc(NC(=O)CC3SC(N4CCCC4)=NC3=O)cc2)cc1 (stereo not drawn),3.55
20,O=C(Nc1cccc(S(=O)(=O)N2CCCCC2)c1)c1ccc(N2CCCC2=O)cc1,1.64
21,CCOc1ccccc1CNCc1ccc(F)cc1.Cl,-33
22,O=S(=O)(Nc1ccc2c(c1)OCO2)c1cccc(Br)c1,-23
23,COc1ccc(-c2c(-c3ccc(OCC(=O)NN)cc3O)n[nH]c2C(F)(F)F)cc1,-5.25

row,SMILES,"hERG current change (%, negative = inhibition) at 10uM [%]"
1,CCOC(=O)CN(C(=O)CSc1nnc(-c2ccc(OC)c(OC)c2)o1)c1ccccc1,-10.3
2,O=C1C2CCCN2C(c2ccc(F)c(F)c2)N1c1cccc(Cl)c1 (stereo not drawn),-11.1
3,O=C(Nc1ccc(S(=O)(=O)NCC2CCCO2)cc1)c1cnccn1 (stereo not drawn),0.0697
4,O=C(O)COc1ccccc1/C=C1\SC(=O)N(Cc2ccc(F)cc2)C1=O,18.8
5,O=C(CSc1nnc2ccc(-c3cccnc3)nn12)Nc1ccc(F)cc1,-63
6,Cc1ccc(NC(=O)N2CCCCC2)cc1[N+](=O)[O-],13.2
7,COc1ccc(Cc2nnc(N)s2)cc1OC,1.89
8,Cc1ccc(-c2cn(-c3ccccc3)c(=S)[nH]2)cc1C,17.5
9,CN1CCN(c2nc3c(c(=O)n(C)c(=O)n3C)n2Cc2ccccc2F)CC1,-4.91
10,C#CCOc1ccc2c3c(c(=O)oc2c1)CCCC3,8.49
11,COc1ccc(NC(=O)CN2CCN(CC#N)CC2)cc1,-75.6
12,CN(C(=O)c1ccc(S(=O)(=O)N2CCCC2)cc1)C1CCS(=O)(=O)C1 (stereo not drawn),4.75
13,CCCCn1c(N)c(N(CCC(C)C)C(=O)C2=NN(c3cc(C)ccc3C)C(=O)CC2)c(=O)[nH]c1=O,-1.89
14,CCOC(=O)CC1C(=O)NCCN1C(=O)Nc1ccccc1 (stereo not drawn),6.62
15,Cn1c(NC(=O)/C=C/c2ccco2)cc(=O)n(C)c1=O,4.95
16,CCOC(=O)CC1C(=O)NCCN1C(=O)c1ccc(F)cc1F (stereo not drawn),-18.5
17,CN(C(=O)c1ccccc1-c1ncc[nH]1)C1CCCN(Cc2ccccc2F)C1 (stereo not drawn),4.41
18,Cc1cc(C)c(C(=O)COC(=O)c2cccc(S(=O)(=O)NCc3ccccc3)c2)cc1C,-1.73
19,Nc1nc(Nc2ccccc2F)nc(NC2CCCCC2)c1[N+](=O)[O-],16.8
20,COc1ccc(N2C(=O)CC(Sc3ncccc3C(=O)O)C2=O)cc1 (stereo not drawn),10.3
21,Cc1ccc(N/N=C/c2ccc3c(c2)OCCO3)cc1Cl,0.67
22,Cc1onc(-c2ccccc2)c1C(=O)N/N=C/c1c[nH]c2ccccc12,-6.69
